Reference: the supplement of paper PMC11417369
± gives the standard deviation of the averaged measurements. The list shows a part of the results.

system: PfAP2-EXP AP2 domain (GST-tagged); assay: gcPBM binding intensity (ln(normalized median fluorescence intensity)); higher = stronger DNA binding
Method in brief: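 An Agilent 4 × 180k array of primer-extended double-stranded 36-bp intergenic genomic probes, with negative controls, was incubated for 1 h with GST-tagged P. falciparum DNA-binding domains expressed in E. coli. Alexa488 anti-GST antibody detected bound protein, scanned at 488 nm. Binding intensity is the highest Masliner-normalised natural-log median intensity across replicate spots of either probe orientation.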

| Sequence | gcPBM binding intensity (ln) |
| --- | --- |
| TTAAAAATAAAACAAAGTACTCAAGTTATTGTCTTT [XGTACX_site1584] | 8.46 ± 0.38 |
| CACGCATACAGACACACACACACACCCATATATATA [CACACA_site636] | 8.71 ± 0.37 |
| TAAATACCTATATGGCGTACTATTATCATAGTATAT [XGTACX_site5423] | 8.49 ± 0.34 |
| TATTTATTATGATACTCATATTATTCTATGATTAAA [GTGCAC_negctrl_site486] | 8.29 ± 0.37 |
| CGTAAATTTTTCTAAGTGCATGTTAATTTTTCAATT | 8.82 ± 0.19 |
| TGAAATAAAATTTGTACACACATATATATATATATA [CACACA_site586] | 10 ± 0.42 |
| GTGAATCCTAAGTGTACACATCTTACAGATATATAT [CACACA_site4836] | 9.46 ± 0.46 |
| ATTTTCAAATTAAAATGTACAAATGAAAGAAAGGGA [XGTACX_site7048] | 8.96 ± 0.34 |
| ATATAGGTATAATACACACACTAATATGTAACTGTA [CACACA_site7011] | 8.39 ± 0.54 |
| TTCCTTCATTGGAAAAGTACACAATATTGTCGTTTA [XGTACX_site8057] | 8.6 ± 0.45 |
| GCACAAATCATCAAATGTACAGAAAATGCTGTCAAT [XGTACX_site5037] | 8.61 ± 0.42 |
| TTTTTTTTTTTTTTTTGTACACATAGTAAAAATTAA [XGTACX_site2410] | 8.3 ± 0.43 |
| TTTTTTTTTAAGCAAAGGAAATCAAAATAAAAATAT [CACACA_negctrl_site719] | 8.53 ± 0.46 |
| TGTTATTAAAACGTGACACACAATATATATATATAT [CACACA_site3539] | 9.98 ± 0.28 |
| TTATAAATTATATATATGACCAATAATTGTGAGCAT [CACACA_negctrl_site725] | 8.63 ± 0.28 |
| TATATATATATATGTTGTACTTTTAATTTAAATGTA [XGTACX_site4239] | 10.2 ± 0.23 |
| TTTTTTTTTTATTCTACACACATATGTTTTTATATG [CACACA_site182] | 8.7 ± 0.49 |
| TGTCGACATGTAGGTAGTACTATTAAAAATAATGAT [XGTACX_site3849] | 8.8 ± 0.42 |
| ATAGAAGGACATATAACACACATATATTATAAGTAT [CACACA_site5461] | 8.56 ± 0.42 |
| AAATATATATATATAATACACACTAAAGTAACATAA [CACACA_site2870] | 8.79 ± 0.3 |
| GGATGATTAAGGGGGACACACGTTTATATATTTATA [CACACA_site4342] | 9.82 ± 0.45 |
| TAAATATAAACACAAACACACACATATATATATATA [CACACA_site7978] | 10.1 ± 0.42 |
| AATAAATTAATAAGGTGTACATAAATAATTTATATA [XGTACX_site8278] | 8.7 ± 0.39 |

| Sequence | gcPBM binding intensity (ln) |
| --- | --- |
| AAATAGGGAATTTATGCACACAGTTAAGGGGGAAAA [CACACA_site2071] | 9.19 ± 0.3 |
| ATATATTATTATATATGTACTTATTTATAAATGATT [XGTACX_site7597] | 8.3 ± 0.23 |
| CATACTCTACATAGATGTACTCATTTAAAAAAAAAA [XGTACX_site6945] | 8.36 ± 0.17 |
| ATTTTTTTTTTTTTTTTTTTTTTTTTCTCTCTCACT [CACACA_negctrl_site1046] | 8.21 ± 0.46 |
| ATTCAAAAGGTTTAATGTACGTGATGTTTCACAAAT [XGTACX_site784] | 8.38 ± 0.33 |
| TTAACAAATGGACACACACACACACCCAAAAAAAAA [CACACA_site4443] | 8.68 ± 0.44 |
| TTATATTAAACAAACACACACATATATATATATATA [CACACA_site2382] | 10.1 ± 0.47 |
| TATATATATATATATTGTACATATTGTATATATTGT [XGTACX_site3212] | 9.98 ± 0.21 |
| TGTTACATATTATAAATACATTAACTATTATATGTA [CACACA_negctrl_site1735] | 8.26 ± 0.49 |
| TATATATATATTTATACACACATTAGTGTATCCATG [CACACA_site5609] | 9.58 ± 0.28 |
| TTTATAAAAAATTTTTTTTTTTTTTTTTAAATATAT [CACACA_negctrl_site146] | 8.19 ± 0.4 |
| TTGGCATACAGACACACACACACACGCCCACATATA [CACACA_site6425] | 8.67 ± 0.57 |
| TTTTTTTTTTGTAGTTGTACGAACTAGCTATTTATG [XGTACX_site692] | 8.45 ± 0.44 |
| ATATATATATATATATGTACATATATATATTTTTTA [XGTACX_site5987] | 9.99 ± 0.54 |
| CAAAAAAACAAACACACACACACACCCATATATATA [CACACA_site3653] | 8.62 ± 0.28 |
| ATCAATACACATATATGTACATATAATAATTATCTT [XGTACX_site662] | 9.05 ± 0.46 |
| TTATTTTTTCAAGAATGTACTTACGAATTGTCGTAT [XGTACX_site1363] | 8.23 ± 0.4 |
| TAATTACCATATGGTACACACATATATATATGTATA [CACACA_site3487] | 8.87 ± 0.44 |
| ATTTATAATCTGTATAGTACACATATATACATGGTT [XGTACX_site2714] | 8.45 ± 0.3 |
| CTAAAACAATAAATCACACATACATAGGATAATATA [CACACA_site4247] | 8.73 ± 0.34 |
| TCTTAAATATACAGTTGTACTAAACAAAAAAAAAAA [XGTACX_site2639] | 8.5 ± 0.38 |
| TATAAAAAATGATAAAGTACTTTATACACACAAATA [XGTACX_site8486] | 8.89 ± 0.32 |
| AAAATATACACACATATGTATATAATATTATATGTA [GTGCAC_negctrl_site496] | 8.46 ± 0.29 |

| Sequence | gcPBM binding intensity (ln) |
| --- | --- |
| ATTTATCTATAATATACACACATATAACAGACATAT [CACACA_site6469] | 8.52 ± 0.33 |
| TACACAAAATTTAAATGTACATTAAATATATGATGT [XGTACX_site2140] | 8.55 ± 0.33 |
| AAACATCATAAATATACACACATATATATATATATA [CACACA_site620] | 10 ± 0.44 |
| TGATAGCTAGCTATATGTACATATATATATATATAT [XGTACX_site393] | 10.1 ± 0.34 |
| CTTTCGGTTGGAGAGGTGCGCTTCTCCTTTATAATA | 8.81 ± 0.22 |
| CGAAACCATATGTACACACACATATATAAATATGTA [CACACA_site7082] | 8.51 ± 0.28 |
| AAAACGTATCACAAAAGTACAGATAGTTATAATATA [XGTACX_site185] | 8.63 ± 0.31 |
| TTTATATTTCTCTTTAGTACATATTATATTCTTTTA [XGTACX_site1618] | 8.63 ± 0.43 |
| AATGAAAATAAATTAACACACAATTTTAATATTGTT [CACACA_site1306] | 8.08 ± 0.35 |
| GTATACTTAACATTCACACATATATATATATATAAA [CACACA_site4596] | 8.6 ± 0.42 |
| ATATATATATATATATGTACTTATAATTCTTCAATT [XGTACX_site5627] | 9.96 ± 0.52 |
| AATTATTTACCTTCTTTGAAAGAACAAATGATACAA [CACACA_negctrl_site1315] | 8.41 ± 0.5 |
| ATATATCAACTCATATTATTTTCTTTTATTATTTAT [CACACA_negctrl_site276] | 8.64 ± 0.68 |
| TTTTTGAAATAATGAAACAGCAAAAAAACAAAAATA [CACACA_negctrl_site221] | 8.9 ± 0.64 |
| AAAAAAAACAGACACACACACAAATATATAAAAATA [CACACA_site1172] | 8.67 ± 0.65 |
| TATTAAAAGAAAATAACACACACAAAAAAAAAAAAA [CACACA_site8661] | 8.34 ± 0.64 |
| AAAATAAGCGTGAAACGTACATATTACATTATTATA [XGTACX_site8914] | 8.35 ± 0.38 |
| ATAATATATATATAGTGTACATTTGAATATATTTGA [XGTACX_site583] | 8.44 ± 0.42 |
| AAAATAAAAACAAAATCACACATTCCAGTTTTTTTT [CACACA_site5356] | 8.3 ± 0.38 |
| TTTTAAAATATCAACACACTCATTATTTTCTATATT [CACACA_site4740] | 8.4 ± 0.42 |
| TATATACATGTGAGAGTGCATATAGACATAAAAAAT | 9.09 ± 0.26 |
| TCATTCTATCTGTTCACACATACACAAAAAAAAAAA [CACACA_site5141] | 8.64 ± 0.52 |
| AAGGTCATTTTATATTGTACATGAAATTGTTATGTA [XGTACX_site187] | 8.37 ± 0.4 |

| Sequence | gcPBM binding intensity (ln) |
| --- | --- |
| ATATACAGATAAATGTGTACTTAAATCTATTATATT [XGTACX_site2632] | 8.18 ± 0.28 |
| AATAATGAATACACATGTACAAAAATTTTTCTTACT [XGTACX_site1962] | 8.61 ± 0.33 |
| TATTACAAATATGGCACACATATATATATATATATT [CACACA_site3268] | 8.49 ± 0.26 |
| TCAATTTGGAACGGTATGCACTAATTTTATATTTTT | 8.41 ± 0.27 |
| ATATATTTTGTATGTAGTACAATTTTATAATCATAT [XGTACX_site8373] | 8.12 ± 0.12 |
| ACAAAGACAATTTTGTTATATATAAAAAAAAAAAAT [CACACA_negctrl_site253] | 8.51 ± 0.57 |
| TATATAAAACCTTATTGTACTATTAGACTATGCTTA [XGTACX_site6026] | 8.21 ± 0.39 |
| CAAATATCTATTTAGTGTACTAATATATTCAATAAT [XGTACX_site2345] | 8.41 ± 0.18 |
| TACAAATATATATGCACACACATATCTGTATATGTG [CACACA_site5663] | 8.59 ± 0.24 |
| ATAGCATATATTTTTTGTACATATGTTATATATATA [XGTACX_site2184] | 8.96 ± 0.071 |
| ATTAATTTTCCATTCACACATATATATATATATATA [CACACA_site6065] | 10.1 ± 0.55 |
| ATGTAGATATATATCTGTACGTATATGTAAATATTA [XGTACX_site1516] | 8.72 ± 0.35 |
| ACACATTATAACAAGGTGCAATTTTTATACACATGT [GTGCAC_site9866] | 8.61 ± 0.15 |
| AATTCTTTTTATATATTAAATATTATTAATAAGTCA [CACACA_negctrl_site1488] | 8.21 ± 0.4 |
| GCTATAATAAAATTTAAACACACGTAATATAATATA [CACACA_site2592] | 8.59 ± 0.49 |
| AAAATTTCATAAAGACGTACTATAAAAATAAAATTA [XGTACX_site4182] | 8.59 ± 0.4 |
| GAAAAAAAAAAAAATACACACAAATTGGTATATAAC [CACACA_site6315] | 8.38 ± 0.58 |
| CACTAATAGTGGATTACACACATATAGATGTATATA [CACACA_site7234] | 8.34 ± 0.35 |
| TATAAAAAATATCCTTTTTTTATACATCAATATATA [TGCATGCA_negctrl_site291] | 8.02 ± 0.35 |
| GTATATTTCTTTAAATGTACACATTTTTTTAAAGAG [XGTACX_site1225] | 8.53 ± 0.35 |
